Among all 310,000 compounds or so, about 2,200 (0.71%) showed an effect of 50% or more. Effects have a minus sign here. This is one part of the list.
Each compound was assayed against human ether-à-go-go-related gene (hERG) potassium channel (human, UniProt Q12809) (assay: primary screen, population patch clamp on CHO cells stably expressing hERG).
human ether-à-go-go-related gene (hERG) potassium channel, sequence (Q12809 whole entry, looked up): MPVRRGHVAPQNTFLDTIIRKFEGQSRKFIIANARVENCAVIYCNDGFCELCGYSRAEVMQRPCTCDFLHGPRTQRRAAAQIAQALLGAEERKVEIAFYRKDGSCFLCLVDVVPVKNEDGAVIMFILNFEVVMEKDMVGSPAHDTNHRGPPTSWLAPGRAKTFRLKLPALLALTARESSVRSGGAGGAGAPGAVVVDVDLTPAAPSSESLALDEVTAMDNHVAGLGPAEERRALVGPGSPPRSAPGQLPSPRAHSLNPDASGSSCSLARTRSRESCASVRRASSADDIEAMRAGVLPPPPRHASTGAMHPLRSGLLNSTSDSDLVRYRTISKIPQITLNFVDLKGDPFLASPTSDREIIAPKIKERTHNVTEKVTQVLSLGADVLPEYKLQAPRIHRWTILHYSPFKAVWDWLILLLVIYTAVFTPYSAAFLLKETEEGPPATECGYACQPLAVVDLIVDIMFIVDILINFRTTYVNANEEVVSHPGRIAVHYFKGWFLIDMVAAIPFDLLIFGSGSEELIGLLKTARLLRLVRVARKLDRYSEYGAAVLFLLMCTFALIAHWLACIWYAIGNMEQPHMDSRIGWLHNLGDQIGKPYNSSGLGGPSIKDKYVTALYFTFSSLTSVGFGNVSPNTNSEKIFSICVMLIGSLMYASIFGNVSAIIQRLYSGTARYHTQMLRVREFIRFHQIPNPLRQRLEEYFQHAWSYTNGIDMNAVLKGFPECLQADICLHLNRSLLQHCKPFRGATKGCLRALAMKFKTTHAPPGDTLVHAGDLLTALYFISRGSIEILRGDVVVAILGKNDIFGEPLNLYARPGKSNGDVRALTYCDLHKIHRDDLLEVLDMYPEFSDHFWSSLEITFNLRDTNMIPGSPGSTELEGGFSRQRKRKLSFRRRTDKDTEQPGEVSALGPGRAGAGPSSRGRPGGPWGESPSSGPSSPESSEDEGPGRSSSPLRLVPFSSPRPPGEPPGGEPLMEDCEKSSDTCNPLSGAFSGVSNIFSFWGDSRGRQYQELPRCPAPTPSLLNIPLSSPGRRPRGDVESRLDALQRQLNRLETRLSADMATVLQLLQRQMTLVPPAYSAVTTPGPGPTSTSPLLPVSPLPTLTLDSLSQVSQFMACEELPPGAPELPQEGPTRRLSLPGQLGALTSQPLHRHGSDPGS

| Structure (SMILES) | hERG current change (%, negative = inhibition) at 1uM [%] |
| --- | --- |
| O=S1(=O)CCN(OCc2ccc(F)cc2Cl)CC1 | 25.6 |
| Cc1cc(=O)c(C(=O)O)nn1-c1cccc(C(F)(F)F)c1 | -78.9 |
| CC(=O)NCCC(=O)N1CCCC(N(C)CCc2ccccc2)C1 (stereo not drawn) | -5.2 |
| O=C(Cn1nnc2c(sc3nc4c(c(-c5ccccc5)c32)CCC4)c1=O)c1ccccc1 | 21.8 |
| c1nc2nc3c(c(N4CCOCC4)n2n1)CCCC3 | -0.603 |
| C=CCn1c(SCC(=O)Nc2ccc(N3CCOCC3)cc2)nnc1-c1ccncc1 | 8.97 |
| O=C(N/N=C/c1ccncc1)c1sc2ccccc2c1Cl | 6.42 |
| COCCCNC(c1ccccc1)c1ccncc1.Cl (stereo not drawn) | 14.8 |
| C(=C\c1cccc2ccccc12)/c1nnc(-c2cccs2)o1 | 52.4 |
| CCc1ccc(CN(C)C(=O)c2cc(COc3ccc(OC)cc3Cl)on2)nc1 | -4.73 |
| O=C(CSc1nccn1-c1ccccc1)c1ccc(Cl)cc1 | 1.95 |
| CC1CCCCC1NC(=O)Cn1nnc2ccccc2c1=O (stereo not drawn) | 10.6 |
| CCC(=O)c1ccc(OCC(=O)OCC(=O)c2cc(C)n(CC3CCCO3)c2C)cc1 (stereo not drawn) | 10.8 |
| O=C1CCCN1CCCNS(=O)(=O)c1ccc(Br)s1 | 16.3 |
| O=C(c1ccc(NC(=S)NCc2ccco2)cc1)N1CCCCC1 | 13.3 |
| COc1ccc(NC(=O)c2c(Nc3ccccc3)sc(C(=O)c3ccc(F)cc3)c2N)cc1 | -1.58 |
| O=C(O)COc1ccccc1O | 15.3 |
| CC1C(c2ccccc2)C(C#N)(C#N)C2(C#N)C(=O)NC1(N)C2C (stereo not drawn) | 0.278 |
| O=C(CN(C(=O)CCC(=O)Nc1nccs1)c1ccc2c(c1)OCO2)NCC1CCCO1 (stereo not drawn) | 10.1 |
| Cc1ccc(OCC(O)Cn2c(NCCc3ccccc3)nc3c2c(=O)[nH]c(=O)n3C)cc1 (stereo not drawn) | 0.483 |
| Cc1c(C(=O)N2CCCCC2)c(S(=O)(=O)N(C)Cc2ccccc2)c(C)n1C | 4.83 |
| Cc1nnc(SCC(=O)N(C)C2CCCCC2)s1 | 2.88 |

| Structure (SMILES) | hERG current change (%, negative = inhibition) at 1uM [%] |
| --- | --- |
| O=C(c1ccc(F)cc1F)N1CCN(c2n[nH]c(=O)[nH]c2=O)CC1 | 5.59 |
| CCN1CCN(CCCNC(=O)c2cc3c(s2)-c2ccccc2OC3)CC1 | -23 |
| O=C1NC(c2ccc(Cl)cc2Cl)Oc2ccccc21 (stereo not drawn) | 9.56 |
| CCCCOc1ccc(C(=O)N2CC(C)OC(C)C2)cc1 (stereo not drawn) | -1.56 |
| COc1ccc(S(=O)(=O)NCc2ccccn2)cc1 | 10.3 |
| C/C(=N\NS(=O)(=O)c1ccc(Cl)cc1)c1ccc(NC(=O)c2ccco2)cc1 | 15.1 |
| O=C(Nc1cc(C(F)(F)F)ccc1N1CCOCC1)c1ccc(Cl)nc1 | 7.97 |
| Cc1cccc(C)c1OCC(=O)N(Cc1cccs1)C1CCS(=O)(=O)C1 (stereo not drawn) | 14.2 |
| COc1cc(SC)ccc1C(=O)N(C)CC(=O)Nc1cccc2ccccc12 | 11.4 |
| CCc1ccccc1-n1c(SCC(=O)c2c(N)n(C3CC3)c(=O)[nH]c2=O)nnc1N1CCOCC1 | 8.99 |
| Cc1cc(OCC(=O)Nc2ccccn2)c2c(C)c(C)c(=O)oc2c1 | 17.7 |
| O=C(COC(=O)C1(c2ccc(F)cc2)CCCC1)N1CCOCC1 | 15 |
| N#Cc1ccccc1OCCCNC1CCCC1.O=C(O)C(=O)O | 2.23 |
| CC(=O)Nc1ccccc1OC(C)C(=O)N1CCC(C)CC1 (stereo not drawn) | 13.4 |
| COc1ccc(C(=O)Nc2ccc(Nc3ccccc3)cc2)cc1[N+](=O)[O-] | -1.73 |
| COc1ccc(NC(=O)c2cc(S(=O)(=O)N3CCc4ccccc43)cn2C)c(OC)c1 | 4.11 |
| Cc1nc2ccccc2c2oc(C(=O)N3CCCC(C)C3)cc12 (stereo not drawn) | 8.54 |
| CCc1cc2cc(C)cc(C)c2nc1SCC(=O)NNC(=O)c1ccco1 | 8.74 |
| Cc1ccc(-c2cnc(SCCNC(=O)c3ccco3)[nH]2)cc1 | -5.7 |
| COc1ccc(-c2nc(-c3ccc(NC(=O)c4ccncc4)cc3)no2)cc1OC | 11.1 |
| COC(=O)c1ccc(CNC(=O)c2cc3ccccc3oc2=O)cc1 | 8.93 |
| COCCn1c(SCC(=O)Nc2ccc(C(C)=O)cc2)nc2c([nH]c3ccccc32)c1=O | 7.76 |

| Structure (SMILES) | hERG current change (%, negative = inhibition) at 1uM [%] |
| --- | --- |
| NC(=O)C1CCN(C(=O)/C=C/c2cccc(Br)c2)CC1 | -1.73 |
| COc1cccc(-c2nnn(CC(=O)NC3CCCC3)n2)c1OC | 14.6 |
| O=C(NCc1ccco1)C(c1ccncc1)N(CCC1=CCCCC1)C(=O)Cn1nnc2ccccc21 (stereo not drawn) | 2.4 |
| O=C1CSc2ccc(C(=O)NCCC3=CCCCC3)cc2N1 | 10.9 |
| COc1cc(-c2nnco2)cc(OC)c1OC | 8.53 |
| O=C(C1CCC(CNS(=O)(=O)c2cccc3cccnc23)CC1)N1CCc2ccccc21 (stereo not drawn) | 1.06 |
| NS(=O)(=O)c1ccc(CCNC(=O)CSc2ccc(Cl)cc2Cl)cc1 | -2.3 |
| C=CCc1ccc(OCCN2CCc3ccccc3C2)c(OC)c1.O=C(O)C(=O)O | -42.9 |
| COC(=O)CC(NC(=S)NC(=O)c1ccccc1)c1ccc(Br)cc1 (stereo not drawn) | 13 |
| COc1ccccc1NC(=O)CCNC(=O)c1ccc(C)cc1 | 12.2 |
| CCOC(=O)C1CCN(C(=O)CNC(=O)c2nn(-c3ccc(OC)cc3)c(=O)c3ccccc23)CC1 | 14.2 |
| O=C(CSCCO)Nc1ccc(C23CC4CC(CC(C4)C2)C3)cc1 | 6.38 |
| Cn1c(-c2ccc(F)cc2)cnc1SCC(=O)NNC(=O)Cc1ccccc1 | 3 |
| CCc1ccc(CNC(=O)C2CCCN(S(=O)(=O)N3CC(C)CC(C)C3)C2)cc1 (stereo not drawn) | 17.9 |
| CCCCCCCCSc1nnc(/N=C/N(C)C)s1 | 11.3 |
| O=C(CN1CCCCC1)Nc1ccc(S(=O)(=O)NC2CCCCC2)cc1 | -4.49 |
| Cc1c(CC(=O)NCC(=O)O)c(=O)oc2cc3occ(-c4ccccc4)c3cc12 | 12.1 |
| COC(=O)c1sccc1NC(=O)Nc1ccccc1Cl | 10.1 |
| CN(C(=O)CSc1nc2c(cnn2-c2ccccc2)c(=O)[nH]1)C1CCS(=O)(=O)C1 (stereo not drawn) | 11.9 |
| COC(=O)c1cc(OC)c(OC)cc1NC(=O)CN1CCOCC1 | 5.07 |
| COc1ccc(N2CCN(CC(=O)c3ccc(O)c(C)c3O)CC2)cc1 | 21.2 |
| COc1cc(/C=N/O)cc(Br)c1OCc1cccc(Cl)c1 | 7.32 |

| Structure (SMILES) | hERG current change (%, negative = inhibition) at 1uM [%] |
| --- | --- |
| COc1cc(NC(=O)CN(C)CCOc2ccccc2)c(C)cc1[N+](=O)[O-] | 7.87 |
| O=C(Nc1cccc([N+](=O)[O-])c1)C(=O)N1CCCCC1 | 12 |
| Cc1cc(C)nc(NS(=O)(=O)c2ccc(NC(=O)CN3C(=O)c4ccccc4C3=O)cc2)n1 | 4.01 |
| Clc1ccc2oc(-c3cccnc3NCc3ccccc3)nc2c1 | -7.92 |
| O=C(Nc1cc(S(=O)(=O)N2CCOCC2)ccc1-n1cncn1)c1ccc(Cl)cc1 | -34.6 |
| O=C(NCC1CCCO1)Nc1ccccc1 (stereo not drawn) | 3.62 |
| CC(=O)C1=C(O)C(=O)N(CCc2c[nH]c3ccccc23)C1c1ccco1 (stereo not drawn) | 10.4 |
| Fc1ccccc1/C=N/Nc1nc(-c2ccccn2)nc2ccccc12 | 15.4 |
| COc1ccc(-c2cc(C)no2)cc1S(=O)(=O)NCCc1ccco1 | 0.782 |
| COc1cccc(C2c3[nH]c4ccccc4c3C[C@H]3C(=O)N(c4ccccc4C(=O)N4CCC(C(=O)O)CC4)C(=O)N23)c1 (stereo partly drawn) | 3.33 |
| O=[N+]([O-])c1ccccc1CSc1nnc2ccccn12 | 7.6 |
| CS(=O)(=O)N(CC(=O)N1CCN(c2ccccc2)CC1)c1cc(C(F)(F)F)ccc1Cl | -8.42 |
| CC(C)C[C@H](NC(=O)N1CC(=O)Nc2ccccc21)C(=O)N[C@@H](Cc1ccccc1)C(=O)O | 11.6 |
| COc1cc(Br)cc(/C=C/c2ccc3cccc(O)c3n2)c1O | 16.8 |
| COc1ccc(S(=O)(=O)Nc2cc(OC)c(NC(=O)c3ccco3)cc2OC)cc1 | 6.01 |
| Cn1c(NCCCO)nc2c1c(=O)n(Cc1ccccc1F)c(=O)n2C | 4.91 |
| Cc1n[nH]c(C)c1CCNC(=O)C1CCC(=O)N(CCc2cccc(F)c2)C1 (stereo not drawn) | 9.88 |
| COc1ccc(Cn2c(O)c(C=NCCCn3ccnc3)c(=O)[nH]c2=O)cc1 | 2 |
| O=c1c2ccccc2nc(C[n+]2ccccc2)n1-c1cccc(C(F)(F)F)c1.[Br-] | 5.64 |
| O=S(=O)(c1ccc(Cl)cc1)N1CCN(C(=S)NCC2CCCO2)CC1 (stereo not drawn) | 8.76 |
| COc1cccc(CCc2nnc(CCC(=O)N3CCCC3c3nccs3)o2)c1 (stereo not drawn) | 15.1 |
